Experiment in all cases: two-hybrid; bacterial two-hybrid (BACTH) in E. coli BTH101; T25 (pKT25/pKNT25) and T18 (pUT18/pUT18C) fusions; spots on LB with X-Gal and IPTG, 25°C, imaged after 48 h
Test [1] has as its target T1, YukB, bacterial two-hybrid fusion (Bacillus subtilis 168) (UniProt C0SPA7).
T1 sequence: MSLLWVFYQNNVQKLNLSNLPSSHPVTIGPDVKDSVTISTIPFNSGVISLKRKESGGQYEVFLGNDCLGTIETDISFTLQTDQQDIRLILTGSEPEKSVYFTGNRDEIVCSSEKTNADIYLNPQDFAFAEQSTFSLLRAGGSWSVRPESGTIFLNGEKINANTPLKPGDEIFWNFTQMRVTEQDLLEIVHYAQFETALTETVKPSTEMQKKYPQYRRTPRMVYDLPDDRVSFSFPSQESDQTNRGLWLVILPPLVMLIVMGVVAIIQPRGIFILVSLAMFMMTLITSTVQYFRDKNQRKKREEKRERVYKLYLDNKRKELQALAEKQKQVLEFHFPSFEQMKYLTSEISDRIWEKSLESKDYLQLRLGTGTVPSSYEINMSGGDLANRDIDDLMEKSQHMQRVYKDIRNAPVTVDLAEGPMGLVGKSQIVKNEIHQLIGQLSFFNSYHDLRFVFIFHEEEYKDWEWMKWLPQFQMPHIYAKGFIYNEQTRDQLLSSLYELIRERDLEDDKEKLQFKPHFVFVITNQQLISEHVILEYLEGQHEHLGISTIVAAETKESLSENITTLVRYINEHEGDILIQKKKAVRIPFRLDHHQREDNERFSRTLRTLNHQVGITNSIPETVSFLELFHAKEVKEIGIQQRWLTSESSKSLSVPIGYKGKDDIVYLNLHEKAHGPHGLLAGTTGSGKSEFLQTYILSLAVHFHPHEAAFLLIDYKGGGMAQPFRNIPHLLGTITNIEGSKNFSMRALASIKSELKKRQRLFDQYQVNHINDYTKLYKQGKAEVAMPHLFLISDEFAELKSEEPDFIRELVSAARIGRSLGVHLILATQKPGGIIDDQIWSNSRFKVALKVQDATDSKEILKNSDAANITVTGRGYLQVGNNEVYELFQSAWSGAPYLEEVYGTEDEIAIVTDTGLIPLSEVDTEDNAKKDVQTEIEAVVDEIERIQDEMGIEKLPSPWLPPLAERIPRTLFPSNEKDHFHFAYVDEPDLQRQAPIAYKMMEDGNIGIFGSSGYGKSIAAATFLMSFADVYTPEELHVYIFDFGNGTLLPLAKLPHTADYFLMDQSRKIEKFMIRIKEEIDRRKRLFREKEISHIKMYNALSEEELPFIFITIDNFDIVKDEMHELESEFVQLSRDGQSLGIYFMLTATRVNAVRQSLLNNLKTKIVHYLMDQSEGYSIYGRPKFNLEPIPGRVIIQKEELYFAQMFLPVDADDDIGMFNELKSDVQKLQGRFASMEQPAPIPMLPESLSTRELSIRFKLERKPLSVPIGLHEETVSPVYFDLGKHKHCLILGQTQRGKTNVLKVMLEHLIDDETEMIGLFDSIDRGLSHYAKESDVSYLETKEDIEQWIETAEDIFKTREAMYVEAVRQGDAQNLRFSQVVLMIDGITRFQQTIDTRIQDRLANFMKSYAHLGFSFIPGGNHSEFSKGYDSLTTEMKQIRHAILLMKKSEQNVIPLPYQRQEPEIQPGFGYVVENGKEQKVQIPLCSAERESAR

Protein sequences, listed by entry. Tags and fused reporters are not part of them. Residues count along the entry.
UniProt P42296, residues 1-97: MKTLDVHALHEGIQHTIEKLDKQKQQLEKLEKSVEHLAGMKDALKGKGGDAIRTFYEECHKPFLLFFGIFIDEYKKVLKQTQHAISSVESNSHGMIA

Test [2] has as its target T2, YueC, bacterial two-hybrid fusion (Bacillus subtilis 168) (UniProt O32100).
T2 sequence: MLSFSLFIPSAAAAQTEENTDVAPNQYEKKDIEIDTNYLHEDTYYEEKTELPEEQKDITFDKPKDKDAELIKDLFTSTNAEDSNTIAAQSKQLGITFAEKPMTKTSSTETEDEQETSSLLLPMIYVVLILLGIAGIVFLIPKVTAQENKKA

Test [3] deals with T3, YukD, bacterial two-hybrid fusion (Bacillus subtilis 168) (UniProt P71071).
T3 sequence: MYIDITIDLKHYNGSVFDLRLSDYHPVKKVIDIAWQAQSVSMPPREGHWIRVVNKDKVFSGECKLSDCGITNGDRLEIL

Test [4] concerns the target T4, N-terminal region of YukB with the two FHA domains (residues 1 to 256), bacterial two-hybrid fusion (Bacillus subtilis 168) (UniProt C0SPA7).
T4 sequence: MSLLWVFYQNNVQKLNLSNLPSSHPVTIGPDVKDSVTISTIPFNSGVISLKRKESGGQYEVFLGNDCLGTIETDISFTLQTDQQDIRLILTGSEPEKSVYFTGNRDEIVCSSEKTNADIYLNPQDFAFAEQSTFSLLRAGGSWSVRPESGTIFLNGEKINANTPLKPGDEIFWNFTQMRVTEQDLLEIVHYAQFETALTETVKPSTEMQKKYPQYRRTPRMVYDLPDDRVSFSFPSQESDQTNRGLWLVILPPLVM

Test [5] has as its target T1, YukB, bacterial two-hybrid fusion (Bacillus subtilis 168). This is another data set of the same source.
The target of test [6] is T5, YukE, bacterial two-hybrid fusion (Bacillus subtilis 168) (UniProt C0SP85).
T5 sequence: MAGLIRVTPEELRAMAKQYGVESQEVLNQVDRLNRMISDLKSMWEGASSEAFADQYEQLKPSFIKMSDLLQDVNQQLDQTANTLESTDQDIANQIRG

In test [7] the target is T2, YueC, bacterial two-hybrid fusion (Bacillus subtilis 168). This is another data set of the same source.

Where two headings read alike, the source gives them in different places. These are yes or no findings as the source states them, for the method shown. Some entries that bind do so weakly or less than the wild type. For some of these results: Where a sequence is shown, tags or fusion partners need not be part of it.

As for “YxiD N-terminal 97-amino-acid region (YxiDN), bacterial two-hybrid fusion (from UniProt P42296 1-97) (domain or fragment)”, the binding result in test [1] and in test [2] was “no binding” throughout.

B1: YukC (full length), bacterial two-hybrid fusion (protein, UniProt P71070 1-451)
chain: MSGEQKSYLENQLEAVAEKTDAGYTFTFQREKIKLLDGLEANVIKDINPFFHKEIDVTDDEVIITIQPPSSYKAFRFMKAKDKKSKWQFAYQLVQAVQQHNLSRLNLIVAPENIVFDKGLTPYFLHYGVKESIPPYERDEERVWQELKAAAALAVDGAFAFEDYLKFNETLTFSAEAKAILDAESYDDLLELIQTHIDELEAKAKTYIHIPRKKWNIQRYIGLGLIVLLVPALIYSMYALFFAQPKHQAIVDSNRAFLNKQYSEVISTLSKYDAESLPESVQYQLATSYVEVENLGSAKTKNIENNLVTLQSDPQHFLYWIDYGRGEYKEAISIGRKLEYNDYIYFALAKYKQQLLSEDTNDEDIQKELDSVNSELEKAQKERQENKQSNSETSLVDTSEEQTQTDEEKQAEEKAAEEKAAAEEKAKKEEQKEKEDEKKETEKKDEKKDDK
For the molecule B1, the binding entry in test [3] was “binds weakly”; in test [4] it was “binds”; in test [5] it was “binds”; in test [6], “binds”; in test [7], “binds”.

These data come from PMC9600267, “The Antibacterial Type VII Secretion System of Bacillus subtilis: Structure and Interactions of the Pseudokinase YukC/EssB” (mBio, 2022).
